# Assay results published in US20220315661A1 (Genmab, published 2022).
# B1: IgG1-hDR5-01-G56T (antibody)
# heavy: EVQLQQSGAEVVKPGASVKLSCKASGFNIKDTFIHWVKQAPGQGLEWIGRIDPANTNTKYDPKFQGKATITTDTSSNTAYMELSSLRSEDTAVYYCVRGLYTYYFDYWGQGTLVTVSSASTKGPSVFPLAPSSKSTSGGTAALGCLVKDYFPEPVTVSWNSGALTSGVHTFPAVLQSSGLYSLSSVVTVPSSSLGTQTYICNVNHKPSNTKVDKRV[skipping human IgG1 Fc]
# light: EIVMTQSPATLSVSPGERATLSCRASQSISNNLHWYQQKPGQAPRLLIKFASQSITGIPARFSGSGSGTEFTLTISSLQSEDFAVYYCQQGNSWPYTFGQGTKLEIKRTVAAPSVFIFPPSDEQLKSGTASVVCLLNNFYPREAKVQWKVDNALQSGNSQESVTEQDSKDSTYSLSSTLTLSKADYEKHKVYACEVTHQGLSSPVTKSFNRGEC
# notes: Humanized IgG1,kappa without the E430G mutation; also called WT counterpart of IgG1-hDR5-01-G56T-E430G
# B2: IgG1-hDR5-01-G56T-E430G (antibody)
# heavy: EVQLQQSGAEVVKPGASVKLSCKASGFNIKDTFIHWVKQAPGQGLEWIGRIDPANTNTKYDPKFQGKATITTDTSSNTAYMELSSLRSEDTAVYYCVRGLYTYYFDYWGQGTLVTVSSASTKGPSVFPLAPSSKSTSGGTAALGCLVKDYFPEPVTVSWNSGALTSGVHTFPAVLQSSGLYSLSSVVTVPSSSLGTQTYICNVNHKPSNTKVDKRV[skipping human IgG1 Fc with E430G (EU numbers)]
# light: EIVMTQSPATLSVSPGERATLSCRASQSISNNLHWYQQKPGQAPRLLIKFASQSITGIPARFSGSGSGTEFTLTISSLQSEDFAVYYCQQGNSWPYTFGQGTKLEIKRTVAAPSVFIFPPSDEQLKSGTASVVCLLNNFYPREAKVQWKVDNALQSGNSQESVTEQDSKDSTYSLSSTLTLSKADYEKHKVYACEVTHQGLSSPVTKSFNRGEC
# notes: Humanized IgG1,kappa with hexamerization-enhancing E430G (Eu numbering); also called IgG1-DR5-01-G56T-E430G; HC hDR5-01-G56T-E430G / LC hDR5-01-G56T
# Assays:
# kDR5ECDdelHis [1] = biological target: T1, kDR5ECDdelHis (human); assay: Bio-Layer Interferometry (Octet HTX), antibody on AHC biosensor, kDR5ECDdelHis in solution, n = 2
# T1 construct: DR5ECDdelHis in which the DR5 signal peptide (aa 1-57) is replaced by that of Kappa 2F8; C-terminal His tag; also called soluble recombinant extracellular domain of human DR5; human recombinant DR5
# T1 chain: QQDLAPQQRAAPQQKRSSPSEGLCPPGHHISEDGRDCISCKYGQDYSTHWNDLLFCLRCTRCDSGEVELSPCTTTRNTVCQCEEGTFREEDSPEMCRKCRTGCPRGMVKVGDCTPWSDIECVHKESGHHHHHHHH
# [2] = biological target: T2, DR5sh139-166ECDdel-FcRbHisCtag (human, with aa 139-166 replaced by the …); assay: ELISA, DR5 fusion protein captured by penta-his antibody
# T2 chain: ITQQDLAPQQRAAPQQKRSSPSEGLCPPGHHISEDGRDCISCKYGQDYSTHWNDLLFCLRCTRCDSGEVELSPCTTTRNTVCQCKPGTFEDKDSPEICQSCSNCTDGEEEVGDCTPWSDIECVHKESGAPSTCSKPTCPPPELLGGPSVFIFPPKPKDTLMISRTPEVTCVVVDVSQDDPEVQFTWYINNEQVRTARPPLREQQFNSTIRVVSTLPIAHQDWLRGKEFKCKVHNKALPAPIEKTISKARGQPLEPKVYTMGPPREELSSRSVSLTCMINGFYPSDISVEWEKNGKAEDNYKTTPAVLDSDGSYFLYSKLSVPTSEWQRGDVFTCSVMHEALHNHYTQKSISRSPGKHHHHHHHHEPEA
# DR5ECD-FcRbHisCtag = biological target: T3, DR5ECD-FcRbHisCtag (human); assay: ELISA, DR5 fusion protein captured on a penta-His antibody coat, detection with HRP goat anti-human IgG F(ab')2, OD 405 nm
# T3 construct: also called fully human DR5 antigen; extracellular domain of human DR5 natural variant P32L
# kDR5ECDdelHis [3] = biological target: T1, kDR5ECDdelHis; assay: Bio-Layer Interferometry (Octet HTX), antibody on AHC biosensor, kDR5ECDdelHis in solution, n = 3
# [4] = biological target: T4, Cyno DR5Mfdel-K420N (cynomolgus monkey DR5 with deletion of aa 185-213 and K420N), expressed on CHO-S cells (cynomolgus monkey); assay: flow cytometry on CHO-S cells expressing cynomolgus monkey DR5, average n = 4 (SD)
# T4 construct: includes the signal peptide; also called CHO-S cells expressing cynomolgus monkey DR5
# T4 chain: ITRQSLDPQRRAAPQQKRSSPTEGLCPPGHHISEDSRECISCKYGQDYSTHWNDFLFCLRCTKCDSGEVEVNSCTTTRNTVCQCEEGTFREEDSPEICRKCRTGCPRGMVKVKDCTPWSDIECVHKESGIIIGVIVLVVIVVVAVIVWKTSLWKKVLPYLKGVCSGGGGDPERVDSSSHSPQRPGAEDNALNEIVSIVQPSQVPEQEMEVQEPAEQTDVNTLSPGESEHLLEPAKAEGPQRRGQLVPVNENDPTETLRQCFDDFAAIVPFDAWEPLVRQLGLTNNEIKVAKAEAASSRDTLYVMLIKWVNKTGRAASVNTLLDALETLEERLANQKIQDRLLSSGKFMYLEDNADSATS
# [5] = biological target: DR5sh79-115ECDdel-FcRbHisCtag (human, with aa 79-115 replaced by the …); assay: ELISA, DR5 fusion protein captured on a penta-His antibody coat, detection with HRP goat anti-human IgG F(ab')2, OD 405 nm
Binder,Kd (kDR5ECDdelHis [1]) [nM],binding result [2],EC50 (read off the curve) (DR5ECD-FcRbHisCtag) [µg/mL],Kd (kDR5ECDdelHis [3]) [nM],EC50 [4],EC50 (read off the curve) [5] [µg/mL]
B1,12.8,,,,,
B2,,"no binding (tested: range 0.46-1,000 ng/mL)",~0.02,10.6,0.27 µg/mL and 1.77 nM,~0.02

# Several values for one entry are separate records, joined by “and”; a condition that tells them apart may be missing. Identical values can stand only once.
